Experimental data as given in PMC4336329 (PLoS ONE, 2015).
About 2,200 (0.71%) of roughly 310,000 compounds showed an effect of 50% or more. Effects have a minus sign here. Some of the results follow.

Target: human ether-à-go-go-related gene (hERG) potassium channel (human, UniProt Q12809)
Assay: primary screen, population patch clamp on CHO cells stably expressing hERG

Chain of human ether-à-go-go-related gene (hERG) potassium channel (Q12809 whole entry, looked up): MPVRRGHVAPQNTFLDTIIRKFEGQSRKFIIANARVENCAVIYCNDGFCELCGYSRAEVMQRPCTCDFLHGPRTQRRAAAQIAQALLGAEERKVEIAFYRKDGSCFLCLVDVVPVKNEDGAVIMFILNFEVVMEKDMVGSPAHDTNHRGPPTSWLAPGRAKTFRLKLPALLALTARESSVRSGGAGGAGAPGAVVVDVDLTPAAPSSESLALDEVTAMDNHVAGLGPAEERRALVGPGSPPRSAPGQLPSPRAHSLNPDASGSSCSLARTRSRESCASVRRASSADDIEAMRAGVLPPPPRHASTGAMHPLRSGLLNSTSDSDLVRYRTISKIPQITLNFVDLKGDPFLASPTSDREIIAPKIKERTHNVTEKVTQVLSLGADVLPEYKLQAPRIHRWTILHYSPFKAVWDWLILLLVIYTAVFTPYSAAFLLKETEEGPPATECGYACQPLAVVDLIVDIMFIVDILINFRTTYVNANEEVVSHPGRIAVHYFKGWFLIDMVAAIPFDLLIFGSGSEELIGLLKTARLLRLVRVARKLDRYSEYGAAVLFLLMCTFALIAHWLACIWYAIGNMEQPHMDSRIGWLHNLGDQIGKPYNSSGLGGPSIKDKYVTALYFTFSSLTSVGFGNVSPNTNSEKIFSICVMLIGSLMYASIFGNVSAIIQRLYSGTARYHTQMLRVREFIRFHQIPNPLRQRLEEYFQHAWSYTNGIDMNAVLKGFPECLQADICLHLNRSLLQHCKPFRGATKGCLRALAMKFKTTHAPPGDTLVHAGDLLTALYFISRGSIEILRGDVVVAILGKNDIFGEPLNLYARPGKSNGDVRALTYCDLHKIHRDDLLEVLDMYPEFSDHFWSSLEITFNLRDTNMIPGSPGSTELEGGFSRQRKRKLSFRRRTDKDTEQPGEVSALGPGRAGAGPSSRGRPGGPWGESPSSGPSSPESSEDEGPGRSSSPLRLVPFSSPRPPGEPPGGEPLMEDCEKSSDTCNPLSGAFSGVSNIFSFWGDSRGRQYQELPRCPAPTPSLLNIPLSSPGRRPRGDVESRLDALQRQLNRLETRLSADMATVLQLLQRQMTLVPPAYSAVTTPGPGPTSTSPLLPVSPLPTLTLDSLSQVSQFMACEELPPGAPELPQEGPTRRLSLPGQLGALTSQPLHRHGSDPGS

| SMILES | hERG current change (%, negative = inhibition) at 1uM [%] |
| --- | --- |
| COCCNC(=O)CNC(c1ccccc1)c1ccccc1.O=C(O)C(=O)O | 7.42 |
| CCC1=C(OC(=O)N(CC)CC)N2C(=O)OC(=NCC(=O)OC)[C@]2(Cc2ccccc2)[C@H]2C1=CC[C@H]1C(=O)N(c3ccccc3)C(=O)[C@H]12 | 3.75 |
| Cc1ccccc1N(CC(=O)NCc1ccc2c(c1)OCO2)C(=O)C1CSC(=O)C1 (centres unmarked) | 10.9 |
| Nc1ccc(C(=O)OC2CCOC2=O)cc1[N+](=O)[O-] (centres unmarked) | 8.21 |
| CC(C)c1nc2ccccc2n1CC(O)COC1CCCCC1 (centres unmarked) | 10.1 |
| COc1ccccc1-n1c(SCC(=O)Nc2ccc3c(c2)OCO3)nc2c(c1=O)SCC2 | -0.652 |
| C=CC[N@@+]12CC[C@]34c5ccccc5N5/C=C6\C7N(/C=C(\C53)[C@@H](C[C@@H]41)/C(=C/CO)C2)c1ccccc1[C@@]71CC[N@@+]2(CC=C)C/C(=C\CO)[C@@H]6C[C@@H]12.[Cl-] (some centres unmarked) | 16.3 |
| CCOC(=O)c1ccc(Nc2ncnc3c2cnn3C)cc1 | -2.39 |
| O=C(NNC(=O)C1CC1)c1cc2cc3ccccc3nc2s1 | 11 |
| Cc1ccc(S(=O)(=O)NNC(=S)NC(C)(C)C)cc1 | 0.483 |
| COc1cc(OC)c(C2Oc3nc(SC)nnc3-c3ccccc3N2C(C)=O)cc1OC (centres unmarked) | -3.42 |
| CCCc1cc(=O)oc2c(CN3CCCC3)c(O)ccc12 | -9.4 |
| CCc1nnc(NC(=O)c2ccc(C)o2)s1 | -2.32 |
| Cn1c(=O)c2c(nc(Sc3ccccc3N)n2C)n(C)c1=O | 13.2 |
| COc1ccccc1CCNC(=O)C(=O)Nc1cc2c3c(c1)C(C)C(=O)N3CCC2 (centres unmarked) | 6.58 |
| CCOCCn1c(-c2ccccc2)nc2ccccc21 | 13.9 |
| O=C(COc1ccc(S(=O)(=O)Nc2ccccc2)cc1)N1CCOCC1 | 13.4 |
| COc1cc(OC)c2c(-c3ccccc3)cc(=O)oc2c1C(CCN1CCCCC1)c1ccc2c(c1)OCO2 (centres unmarked) | 3.03 |
| Cc1cc(NC(=O)CCSc2nc(-c3ccco3)cc(C(F)(F)F)n2)no1 | 8.23 |
| O=C(O)c1cccc(CSc2nnc(COc3ccccc3)o2)c1 | -4.61 |
| CCc1ccc(NC(=O)COc2ccc(Br)cn2)cc1 | 9.73 |
| Cc1cc(NC(=O)C(C)SCC(=O)Nc2ccc(Br)cc2Br)no1 (centres unmarked) | 5.84 |

| SMILES | hERG current change (%, negative = inhibition) at 1uM [%] |
| --- | --- |
| COc1cc(C(=O)O)ccc1O | 22.1 |
| Cc1cc(C(=O)OCC(N)=O)c(C)n1-c1ccccc1 | 0.68 |
| S=C(Nc1ccccn1)NC1CCCC1 | 0.746 |
| C/C(=N\Nc1cc(-c2ccccc2)nc(-c2ccc(Br)cc2)n1)c1cccc(N)c1 | 11.4 |
| COc1ccc(C(=O)NC(=S)Nc2ccc(S(=O)(=O)Nc3cc(OC)nc(OC)n3)cc2)cc1 | 13.7 |
| CCSc1cc(N2CCCC2)nc(-c2ccc(F)cc2)n1 | -7.38 |
| CN(C)CCN(C(=O)COc1ccc(Cl)cc1)c1nc2cc3c(cc2s1)OCO3 | 0.848 |
| CCOc1ccc(C(=O)NC(=S)N(Cc2ccccc2)Cc2ccccc2)cc1 | -3.6 |
| COc1ccc(CN2C(=O)CNC2=S)cc1 | 14.3 |
| COc1cc(OC)cc(C(=O)N[C@H](C(=O)OCC(=O)N2CCc3ccccc32)C(C)C)c1 | 3.07 |
| CS(=O)(=O)N1CCC(C(=O)N2CCC(Cc3ccccc3)CC2)CC1 | 2.65 |
| CC(C)C(NS(=O)(=O)c1ccc2c(c1)OCCO2)C(=O)NCCc1ccccn1 (centres unmarked) | 9.37 |
| Clc1cc(Cl)cc(CN2CCSCC2)c1 | 9.61 |
| O.O=c1ccc2cc(OC3O[C@H](CO)[C@@H](O)[C@H](O)[C@H]3O)c(O)cc2o1 (some centres unmarked) | -12.6 |
| CC1=CSC2=NC(=O)/C(=C/c3cccc(OC(=O)c4ccco4)c3)C(=N)N12 | 4.68 |
| O=C1CCCN1CCCN1C(=O)N[C@@H](Cc2ccccc2)C1=O | 18.4 |
| COc1ccccc1CCNC(=O)c1ccc(Br)s1 | 14 |
| O=C(CC12CC3CC(CC(C3)C1)C2)NC(Cc1ccccc1)C(=O)O (centres unmarked) | 21.5 |
| c1cncc(Oc2cccc(Oc3cccnc3)c2)c1 | 7.86 |
| COc1ccc(OC)c(NC(=O)CCNS(=O)(=O)c2cccc3nonc23)c1 | 11.8 |
| C/C(N)=C(/C#N)C(=O)CSc1nc2cc(Cl)ccc2s1 | -7.65 |
| COc1ccc(CNC(=O)C(=O)N2CCC3(CC2)OCCN3S(=O)(=O)c2ccc(C)cc2)cc1 | 2.1 |

| SMILES | hERG current change (%, negative = inhibition) at 1uM [%] |
| --- | --- |
| O=C(NCCCNC(=O)c1cc(Cl)ccc1Cl)c1ccco1 | 12.3 |
| Cc1ccccc1OCc1nnc(SCC(=O)O)n1Cc1ccccc1 | 4.45 |
| COc1ccc(C(=O)CN2C(=O)NC3(CCCc4ccccc43)C2=O)cc1 (centres unmarked) | 4.43 |
| CCCCCCCCCCC[C@@H](C[C@@H]1OC(=O)[C@H]1CCCCCC)OC(=O)[C@H](CC(C)C)NC=O | 5.12 |
| O=[N+]([O-])c1[nH]cnc1/C=C/c1ccccc1 | 11.9 |
| Cc1ccc(S(=O)(=O)Cn2nnnc2C(C(C)C)N2CCC(C(N)=O)CC2)cc1 (centres unmarked) | 16.9 |
| COc1cc(/C=C(/C#N)c2nc3ccccc3c(=O)[nH]2)ccc1O | 11.6 |
| Cc1cc(C(=O)O)ccc1-n1c(C)cc(/C=C2\SC(=O)NC2=O)c1C | 14.4 |
| O=C(Cn1c(=O)cnc2ccccc21)N1CCCc2ccccc21 | 10.2 |
| O=C(c1ccc2c(c1)N(Cc1ccccc1)CCS2)N1CCOCC1 | 9.06 |
| Cc1ccc(C(=O)Nc2ccccc2C(=O)Nc2ccccn2)cc1Cl | 9.67 |
| Cc1ccc(SCCN2CCN(Cc3ccccc3)CC2)cc1.O=C(O)C(=O)O | 10.7 |
| CCC1(c2ccccc2)NC(=O)N(CC(=O)N2CC(=O)Nc3ccccc32)C1=O (centres unmarked) | 12.8 |
| O=S(=O)(c1cc(Cl)ccc1Cl)N1CCc2ccccc21 | 1.08 |
| COC(C(=O)NCc1ccccc1C)c1ccccc1 (centres unmarked) | 13.7 |
| CC1CCCCC12NC(=O)N(CC(=O)N1CCN(S(=O)(=O)Cc3ccccc3)CC1)C2=O (centres unmarked) | 1.74 |
| COc1ccc(-c2noc(C3CCCN(C(=O)c4cccs4)C3)n2)cc1 (centres unmarked) | 2.69 |
| O=C(CC(c1ccccc1)c1cc(Cl)ccc1O)NCCCN1CCOCC1 (centres unmarked) | -3.79 |
| COc1cc(NC(=O)C2CCCCC2)c2ncccc2c1 | -0.263 |
| COc1ccc(/C=N/NC(=O)c2ccc(O)cc2)cc1CN1CCCc2ccccc21 | 11.7 |
| N#CCP(=S)(c1ccccc1)c1ccccc1 | -0.821 |
| Cc1cc(NC(=O)c2ccccc2NS(=O)(=O)c2c(C)c(C)cc(C)c2C)no1 | 6.38 |

| SMILES | hERG current change (%, negative = inhibition) at 1uM [%] |
| --- | --- |
| COc1ccc(OC)c(NC(=O)NNC(=O)COc2ccc([N+](=O)[O-])cc2)c1 | 7.62 |
| COc1cc2c(cc1OC)C(c1ccc3c(c1)OCO3)CC(=O)N2 (centres unmarked) | -9.27 |
| Cc1occc1-c1nnc(SCC(=O)NC(C)(C)C)n1CC(C)C | 11.8 |
| O=C(NNc1ncccc1-n1cccc1)c1ccc(Cl)cc1 | 0.218 |
| O=C(CCS(=O)(=O)c1ccc(Br)cc1)NCCc1ccccc1 | 7.11 |
| Cc1cccc(NC(=O)/C(C#N)=C/c2ccc(F)cc2)n1 | 24.4 |
| COc1ccccc1N(CC(=O)NC1CCCC1)C(=O)CNC(=O)c1cccs1 | 18.2 |
| CCC(NC(=O)OCc1ccccc1)C(=O)Oc1ccc2ccc(=O)oc2c1 (centres unmarked) | 18.8 |
| COc1cccc(-c2nn(-c3ccccc3)cc2C(=O)NCC(=O)O)c1 | 12.9 |
| N#Cc1ccc(CN2CCN(c3ccc(S(=O)(=O)N4CCCC4)cn3)CC2)cc1 | -2 |
| Cc1ccc(Cl)cc1NC(=S)N1CCC(c2ccccc2)C1 (centres unmarked) | 10.1 |
| Cc1nnc(NC(=O)Nc2cccc(Cl)c2)s1 | 1.44 |
| Cn1c(SCC(=O)N/N=C/c2ccc([N+](=O)[O-])s2)nnc1-c1ccc(Cl)cc1 | -0.743 |
| Cc1ccc(-n2nnnc2-c2cnc3cc4c(cc3c2C)OCO4)cc1 | 9.78 |
| COc1cccc(C2CNC3(CCCC(C)C3)c3[nH]c4ccccc4c32)c1OC.Cl (centres unmarked) | 8.05 |
| CC(=O)Nc1ccc2nc(NC(=O)COc3cccc(C)c3)sc2c1 | 4.41 |
| O=C(/C(N=Nc1cccc([N+](=O)[O-])c1)=C(/O)c1ccc(Br)cc1)C(F)(F)F | 16.2 |
| COc1cc(OC)cc(C(=O)Nc2ccc(NC(=O)c3ccco3)c(C)c2)c1 | 8.37 |
| COCCNC(=S)N/N=C(\C)c1ccccc1F | 11.8 |
| COc1ccc(NC(=O)COC(=O)c2ccc(S(=O)(=O)N(C)c3ccccc3OC)cc2)cc1OC | 24.4 |
